Paper PMC9547309
No constants are given. Whether binding was seen depends on the method and setting. Binding seen in cells or lysates may run through a third protein. Some entries that bind do so weakly or less than the wild type. For some of these results: Tags and fused reporters may be left off the sequences shown. Values belong to the substance of their own block, whether it stands above or below them.

Amino acid sequences for entries named in this document (tags omitted). A change or cut given only in a name is not applied to a line headed by its entry. Residues count along the entry.
UniProt P05106, residues 27-788: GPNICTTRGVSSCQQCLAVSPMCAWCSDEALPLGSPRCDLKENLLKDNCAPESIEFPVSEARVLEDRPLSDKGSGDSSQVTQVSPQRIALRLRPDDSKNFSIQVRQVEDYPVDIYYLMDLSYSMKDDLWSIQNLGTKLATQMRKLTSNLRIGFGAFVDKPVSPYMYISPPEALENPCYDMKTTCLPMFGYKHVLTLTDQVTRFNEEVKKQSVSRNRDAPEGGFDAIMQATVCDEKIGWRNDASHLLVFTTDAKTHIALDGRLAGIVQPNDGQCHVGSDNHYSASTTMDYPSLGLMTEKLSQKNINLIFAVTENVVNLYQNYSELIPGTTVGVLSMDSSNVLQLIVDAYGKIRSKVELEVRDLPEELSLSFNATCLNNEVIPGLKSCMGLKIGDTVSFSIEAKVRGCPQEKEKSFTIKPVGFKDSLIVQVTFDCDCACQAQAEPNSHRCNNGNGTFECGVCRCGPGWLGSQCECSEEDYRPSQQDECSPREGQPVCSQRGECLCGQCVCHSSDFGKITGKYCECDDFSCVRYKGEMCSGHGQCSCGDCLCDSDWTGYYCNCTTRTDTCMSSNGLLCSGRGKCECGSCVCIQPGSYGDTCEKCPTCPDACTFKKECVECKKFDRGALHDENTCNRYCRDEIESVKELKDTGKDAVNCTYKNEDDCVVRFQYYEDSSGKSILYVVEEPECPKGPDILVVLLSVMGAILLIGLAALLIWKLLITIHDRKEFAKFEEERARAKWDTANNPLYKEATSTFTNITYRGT
UniProt P06756, residues 31-1048: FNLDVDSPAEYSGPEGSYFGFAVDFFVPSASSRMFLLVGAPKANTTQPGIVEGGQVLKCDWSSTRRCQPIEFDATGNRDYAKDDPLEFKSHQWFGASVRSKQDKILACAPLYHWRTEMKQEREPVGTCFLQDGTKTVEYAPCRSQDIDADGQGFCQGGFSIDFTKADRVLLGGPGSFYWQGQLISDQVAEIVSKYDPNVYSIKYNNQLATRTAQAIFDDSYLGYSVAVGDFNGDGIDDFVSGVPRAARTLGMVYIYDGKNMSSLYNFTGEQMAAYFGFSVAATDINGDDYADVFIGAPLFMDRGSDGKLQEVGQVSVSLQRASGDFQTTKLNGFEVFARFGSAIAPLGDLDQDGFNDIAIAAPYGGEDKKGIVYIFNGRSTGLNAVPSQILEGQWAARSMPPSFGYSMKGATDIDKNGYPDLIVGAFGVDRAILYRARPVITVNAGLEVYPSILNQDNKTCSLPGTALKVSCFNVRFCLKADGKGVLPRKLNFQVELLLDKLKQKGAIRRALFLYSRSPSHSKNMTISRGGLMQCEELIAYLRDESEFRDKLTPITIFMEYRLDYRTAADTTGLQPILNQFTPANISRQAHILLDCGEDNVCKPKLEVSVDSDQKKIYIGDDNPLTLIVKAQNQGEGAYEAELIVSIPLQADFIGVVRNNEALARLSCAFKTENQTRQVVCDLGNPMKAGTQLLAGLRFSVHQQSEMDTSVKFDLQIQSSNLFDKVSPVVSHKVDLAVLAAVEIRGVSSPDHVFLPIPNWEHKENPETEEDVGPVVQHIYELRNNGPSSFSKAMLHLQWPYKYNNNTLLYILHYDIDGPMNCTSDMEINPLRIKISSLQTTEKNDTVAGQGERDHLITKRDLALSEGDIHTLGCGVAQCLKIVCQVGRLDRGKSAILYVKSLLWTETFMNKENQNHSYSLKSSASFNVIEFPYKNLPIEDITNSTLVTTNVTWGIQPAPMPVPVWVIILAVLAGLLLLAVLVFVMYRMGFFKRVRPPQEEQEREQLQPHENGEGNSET

What was measured:
[1] = target: His-tagged recombinant human RSPO2 protein (human) (UniProt Q6UXX9); test: pull-down; His-tagged RSPO2 (about 20 μg) bound to Ni2+-NTA agarose beads (Pierce Cobalt kit), incubated 3 h at 4°C with 200 μg HEK293T cell extract containing Flag-tagged integrin αv or β3; Western blot with anti-His and anti-Flag; only the target purified
[2] = target: endogenous integrin β3 (human (endogenous in A2780 and OVCAR3)) (UniProt P05106); test: co-IP; endogenous proteins in A2780 and OVCAR3 lysates, reciprocal (Figures 5F, 6E); 50 mM Tris-HCl pH 7.5, 150 mM NaCl, 1% Triton X-100, 1 mM EDTA, 10% glycerol; 4°C
[3] = target: endogenous RSPO2 (human (endogenous in A2780 and OVCAR3)) (UniProt Q6UXX9); test: as above
[4] = target: myc-tagged RSPO2 FUs mutant (1-146) (UniProt Q6UXX9); test: co-IP; OVCAR3 cells transfected with empty vector, myc-tagged RSPO2 (WT), FUs or TSP; lysates immunoprecipitated and probed with anti-Myc, anti-LGR4 or anti-integrin-β3 (Figure 6G)
[5] = target: T1, myc-tagged RSPO2 TSP mutant (145-243) (UniProt Q6UXX9); test: as above
T1 sequence: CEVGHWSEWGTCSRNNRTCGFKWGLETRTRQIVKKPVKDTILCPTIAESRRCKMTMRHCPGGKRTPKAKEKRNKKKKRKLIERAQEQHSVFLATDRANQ

[6] = target: myc-tagged full-length RSPO2 (UniProt Q6UXX9); test: as above

- binding [1]: no binding
Substance: Flag-tagged integrin αv (from UniProt P06756-1 31-1048) (receptor)

- binding [1]: binds
Substance: Flag-tagged integrin β3 (from UniProt P05106-1 27-788) (receptor)

- binding [2]: binds
Substance: endogenous RSPO2 (from UniProt Q6UXX9 22-243) (ligand)

- binding [3]: binds
- binding [4]: binds
- binding [5]: no binding
- binding [6]: binds
Substance: endogenous integrin β3 (from UniProt P05106 27-788) (receptor)
